Data on 82 compounds can be found in PMC12040169 (PLOS Biology, 2025).

The other results are listed elsewhere or left out.

The test relates to T1, C. trachomatis L2/434/Bu expressing GFP (CTL2-GFP).
T1 construct: L2/434/Bu GFP intracellular growth in HeLa cells
On the set-up: species or system HeLa; C. trachomatis total inclusion area by high-content imaging, normalised to DMSO. The conditions noted are these: total inclusion area; 28.5 h, 10 µM; inhibitor. An outline of the steps: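 After bulk GFP and resorufin fluorescence reads, cells were fixed, stained with Hoechst and imaged by high-content microscopy. Inclusion area and number (GFP) stood in for chlamydial growth, nuclei count (Hoechst) for host cell viability. MICs were derived as for the bulk readout.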
Turning to `COc1ccc(NC(=O)/C(=C\c2ccc3c(c2)OCO3)NC(=O)c2ccco2)cc1` [CBK263607], the “% of control remaining” value turned out to be 116.728. Next, `Cc1cc(S(=O)(=O)NC2CCCCC2)ccc1OCC(=O)O` [CBK267832]: 93.0475; `Cc1nn(CC(=O)NC2CC2)c(=O)c2cc3ccsc3n12` [CBK284026]: 80.1682; `O=C1NC2(CCN(C(=O)Cc3ccc(-c4ccccc4)cc3)CC2)Nc2ccccc21` [CBK286309]: 96.1536. Turning to `Cc1ccc(N2CC(c3nc(-c4ccncc4)no3)CC2=O)cc1Cl` (stereo not shown) [CBK288582], the “% of control remaining” value is on record as 108.793. As to `CC(C)(C)NC(=O)COc1ccc(CNCc2ccc(C(=O)O)cc2)cc1` [CBK287204], the “% of control remaining” value is 103.373. Then `O=C(O)c1ccc(N(Cc2ccccc2)S(=O)(=O)c2ccccc2)cc1` [CBK265375N], with 91.949. Next, `N#Cc1cccc(NC(=O)NC[C@H]2C[C@@H]3CC[N@]2C[C@@H]3CN2CCOCC2)c1` [CBK288763]: 95.1961; `O=C(CSc1nnc(-c2cccnc2)n1-c1ccccc1)Nc1cc(C(F)(F)F)ccc1Cl` [CBK267540]: 73.9237; `Cc1n[nH]c(C)c1CCC(=O)N/N=C/c1ccccn1` [CBK262887]: 96.9109. Next, `Cc1noc(C)c1CN1CCC(C(O)c2ccccc2)CC1` (stereo not shown) [CBK305783]: 102.976; `COC(=O)c1c(NC(=O)C(Cc2ccccc2)N2C(=O)c3ccccc3C2=O)sc2c1CCC2` (stereo not shown) [CBK265744]: 93.0591; `Cc1ccc(-c2csc(=Nc3ccc(C(=O)O)cc3)n2Cc2ccccc2)cc1` [CBK296062]: 113.125. On to `O=C(NCCc1ccccc1)C1CCN(C(=O)c2cccc(F)c2)CC1` [CBK307583], for which the “% of control remaining” value turned out to be 95.361.

Take `Brc1ccc(-c2ccnc3nc(-c4ccncc4)nn23)cc1` [CBK288623]: the “% of control remaining” value worked out at 99.0837.

As to `CCn1c(CN2CCOCC2)nnc1SCC(=O)Nc1cccc(Br)c1` [CBK269740], the “% of control remaining” value came to 80.6146. Then `Cc1cccc(N2CCN(C(=O)CCc3ccsc3)C(C)C2)n1` (stereo not shown) [CBK304069], with 48.5308; and `O=C(NCC1COc2ccccc2O1)N1CCN(c2cc(C(F)(F)F)ccn2)CC1` (stereo not shown) [CBK156432], with 104.941. Next, `COc1cc2c3c([nH]c2cc1F)C1(CCN(CCOc2ccccc2)C1)NCC3` (stereo not shown) [CBK115687T]: 64.5783; `Cc1ccc(CN2CCC(CN(C)C(=O)c3cc4sccc4[nH]3)CC2)o1` [CBK307522]: 84.2347. Next, `Cc1nc(S(=O)(=O)CCn2cccn2)n(CC2CCCO2)c1C` (stereo not shown) [CBK305141]: 63.9996. As for `CC(NC(=O)/C(=C\c1ccc(Cl)cc1)NC(=O)c1ccccc1Br)C(=O)O` (stereo not shown) [CBK264582], the “% of control remaining” value is reported as 106.46. Regarding `N#Cc1cccc(CN2CC[C@H](c3nnc(-c4ccco4)o3)C2)c1` [CBK289394], the “% of control remaining” value is on record as 77.951.

With `CS(=O)(=O)N1CC2CCCC(O)(c3cccc(F)c3)C2C1` (stereo not shown) [CBK283107], the “% of control remaining” value worked out at 107.967.

Consider `CCNc1nc(-c2cc(Cl)cc(Cl)c2)cn2ccnc12` [CBK066483], for which the “% of control remaining” value is recorded as 74.2284. Next, `Cc1nc2c(c(=O)[nH]1)CN(Cc1sccc1C)CC2` [CBK283950]: 102.21; `CC(C)[C@H](CO)Nc1nc(-c2ccc(S(C)(=O)=O)cc2)cnc1N` [CBK063718]: 116.026; `COc1ccc(C(=O)[C@H]2CCCN(C(=O)C3CC3)C2)cc1` [CBK284329]: 90.1099.

For the compound `COc1ccc(Oc2nccc(-c3ccccc3)c2C#N)cc1` [CBK291158], the “% of control remaining” value came to 107.573. Then `S=C1NCC(COc2ccc(Cl)cc2)O1` (stereo not shown) [CBK015647], with 89.2249; and `O=C(CN1CCCCCC1)N/N=C/c1ccc(F)c(Br)c1` [CBK261596], with 93.3397. Next, `CCN1CCN(Cc2ccc(OC)c(OCc3ccccc3)c2)CC1` [CBK261910]: 98.8996; `COc1cccc(-c2cnc(N(C)C)nc2C2CCCN2Cc2ccc3ncccc3c2)c1` (stereo not shown) [CBK286251]: 100.406; `Cc1cc(NC(=O)CCn2c(C(F)F)cc3cccnc32)nn1C` [CBK285071]: 102.204. Next, `Cc1cc(Br)ccc1NC(=O)CSc1nnc(-c2ccccc2O)n1-c1ccccc1` [CBK268086]: 100.78; `O=C([C@H]1CN2CCC1C[C@@H]2Cn1cc(COc2ccccc2)nn1)N1CCOCC1` (stereo partly shown) [CBK288734]: 95.5054; `COc1cccc(CN2CCN(Cc3cc(OC)cc(OC)c3)CC2)c1` [CBK033622]: 99.1164. As for `Cc1cc(COc2ccnc(N3CCCN(CCCO)CC3)n2)no1` [CBK083917], the “% of control remaining” value is 93.2482. As to `O=C(O)/C=C\C(=O)Nc1ccc(Oc2ccccc2)cc1` [CBK261216], the “% of control remaining” value is recorded as 79.7366.

Regarding `Cc1cccc(C(=O)Nc2ccc3oc(-c4cccnc4)nc3c2)c1` [CBK073161], the “% of control remaining” value was 91.4884. Next, `FC(F)(F)c1ccnc(SCCc2cnccn2)n1` [CBK105300]: 93.7149; `CCn1nc(C)c(C(C)NC(=O)CC(C)n2nc(C)cc2C)c1C` (stereo not shown) [CBK281533]: 114.418. Consider `O=C(c1ccc(COc2ccc(I)cc2)cc1)N1CCCCCC1` [CBK058852], for which the “% of control remaining” value was determined as 94.3822. In the case of `CCOC(=O)Cn1[nH]c(COC(C)(C)C)c(Cc2c(Cl)cccc2Cl)c1=O` [CBK103551], the “% of control remaining” value stood at 92.0409. Then `Nc1cc2cccnc2c(-c2ccsc2)n1` [CBK081218], with 98.497; and `CCc1nccnc1OC` [CBK089673], with 62.6371; and `C=CCOc1ccc(CNCCN2CCOCC2)cc1` [CBK278215C], with 102.167.

Turning to `O=C1NCCNC(=O)C2(C/C=C/COc3ccccc31)CCN(Cc1ccccc1F)CC2` [CBK292024], the “% of control remaining” value is 103.179. Next, `C=CCN1C(=O)CC2(C1=O)C(=O)N(Cc1csc(-c3ccccc3)n1)c1ccc(Cl)cc12` (stereo not shown) [CBK075445]: 107.791; `CCOC(=O)Cc1csc(NS(=O)(=O)/C=C/c2ccccc2)n1` [CBK000072]: 126.924. Then `Cc1cc(NC(=O)CCN2CCC(N3CCNC3=O)CC2)no1` [CBK304909], with 65.2631.

For `CSCCCNC(=O)N1CCN(CCN2CCOCC2)CC1` [CBK155669], the “% of control remaining” value is given as 76.101. Then `Nc1nc(=O)c2cnc3c(Cl)cccc3c2s1` [CBK291229], with 95.5883. Next, `Cc1cc(CN(C)C(=O)c2cc3sccc3[nH]2)no1` [CBK304340]: 65.5067; `Cc1ccc(N2C(=O)c3ccccc3NC23C(=O)N(C)c2ccc(Br)cc23)cc1` (stereo not shown) [CBK103752]: 85.5653; `CS(=O)(=O)Cc1cccc(C(=O)Nc2ccc(Oc3ccccc3)cc2)c1` [CBK297111]: 86.911. `Cc1ccc(NC(=O)c2cccnc2)c(C(=O)O)c1` [CBK000177]: the “% of control remaining” value turned out to be 72.6393.

For `COc1cccc(-n2c(=O)[nH]c3c(C(N)=O)nc(-c4ccccc4)nc32)c1` [CBK287740], the “% of control remaining” value is 59.2323.

Turning to `COc1cc(S(=O)(=O)Nc2ccc(CC(=O)O)cc2)ccc1Cl` [CBK287019], the “% of control remaining” value was found to be 95.6305. With `COCCN1C(=O)c2ccc(C(=O)Nc3ccc(O)c(C(=O)O)c3)cc2C1=O` [CBK268344], the “% of control remaining” value turned out to be 105.767. Then `C[C@H](NC1=NC(=O)C2(CCN(Cc3ccccc3)CC2)O1)c1ccccc1` [CBK122798T], with 103.522. Then `CCCCN(C)c1c(C)nc2ccc(C(=O)N(C)CCCN(C)C)cn12` [CBK146006], with 95.4813; and `Nc1ncc(-c2cccc(CO)c2)nc1NC1CCCCC1` [CBK063650], with 135.11.

For `O=C(O)c1cc(S(=O)(=O)Nc2cccc(-c3cnco3)c2)c(F)cc1Cl` [CBK067126], the “% of control remaining” value worked out at 104.751. Then `NC(=O)c1c(NC(=O)Cn2cnc([N+](=O)[O-])n2)sc2c1CCCC2` [CBK027935], with 81.4132; and `O=C1c2ccccc2NC(c2ccccc2F)N1O` (stereo not shown) [CBK288377], with 59.8354; and `CC(C)N1CCC(CNC(=O)c2cc(C3CCCCC3)no2)CC1` [CBK283293], with 99.5856. Next, `CCOC(=O)N1CCN(C(=O)c2c(C)nn(C)c2Cl)CC1` [CBK304522]: 31.7928; `COc1ncccc1C(=O)N1CCN(c2ccccc2)CC1` [CBK200166]: 92.7285; `O=C(CCN1Cc2ccccc2C1=O)NCCN1CCc2ccccc21` [CBK282632]: 138.783. Regarding `O=C(O)CCCCC/N=C1\CCc2ccccc2N1` [CBK286773], the “% of control remaining” value turned out to be 118.801.

With `O=C1CC[C@@H](C(=O)N2CCc3nc(-c4ccccc4F)sc3C2)N1` [CBK281891], the “% of control remaining” value amounted to 100.926. Then `Cc1cc(NC(=O)C(=O)NC(C)c2ccccc2)ccc1Br` (stereo not shown) [CBK267084], with 97.4869. As for `CCCCc1ccc(Nc2csc(N)n2)cc1` [CBK020594], the “% of control remaining” value was 0.2915. Next, `CN(C)CCCN1C(=O)C(O)=C(C(=O)c2cccs2)C1c1cccnc1` (stereo not shown) [CBK264511]: 107.781; `Cc1cc(C)n2c(Nc3ccc(S(N)(=O)=O)cc3)nnc2n1` [CBK267601]: 103.425; `Cc1nc(NS(=O)(=O)c2c(C)noc2C)sc1C(=O)Nc1ccc(F)cc1` [CBK050551]: 96.3948. On to `CC(NC(=O)CCc1ccncc1)C1CC2CCC1C2` (stereo not shown) [CBK282090], for which the “% of control remaining” value is listed as 90.8278. As for `CCn1cc(CN2CCC(Oc3cc(C)ccc3F)(C(=O)O)CC2)cn1` [CBK306644], the “% of control remaining” value is 61.9145. Then `COc1ccc(C)cc1Nc1nc(N)nc(-c2oc3ccccc3c2C)n1` [CBK269026], with 86.4856. Then `C=Cn1cc(CN2C3CCC2CC(O)(c2ccc(F)cc2)C3)c(C)n1` (stereo not shown) [CBK282742], with 112.446; and `Cc1cc(C)c2cc(C)c3nn(CC(=O)N(C)C)c(=O)n3c2c1` [CBK283821], with 63.8555.
